Read-outs that look alike come from different tables or passages of the source.
Target: SARS-CoV-2 NSP14 (Severe acute respiratory syndrome coronavirus 2, UniProt P0DTD1)
Experiment: biochemical
[1] = Hill slope of the concentration-response fit
[2] = maximum response, LUM % inhibition, read-out: SARS-CoV-2 NSP14 inhibition: Maximum response (%)
[3] = read-out: SARS-CoV-2 NSP14 inhibition: IC50
[4] = TDI-015051 series, retrospective VS set, biochemical MTase assay, read-out: Merged IC50
[5] = LUM % inhibition, read-out: SARS-CoV-2 NSP14 inhibition: IC50
[6] = LUM % inhibition, read-out: SARS-CoV-2 NSP14 inhibition: Maximum response
[7] = fit of concentration-response curve

| Structure (SMILES) | SARS-CoV-2 NSP14 inhibition: Hill slope [1] | Emax [2] | IC50 [3] | IC50 [4] | IC50 [5] | Emax [6] | SARS-CoV-2 NSP14 inhibition: Hill slope [7] | IC50 (SARS-CoV-2 NSP14 inhibition: IC50, LUM % inhibition) |
| --- | --- | --- | --- | --- | --- | --- | --- | --- |
| COc1ccc(S(=O)(=O)N2CCc3ccccc32)cc1C(=O)N[C@H]1CCSc2ccccc21 [RU-0833660] | 84.9 | 1.05% | > 62.5 µM |  |  |  |  |  |
| COc1ccccc1CNC(=O)c1cc(S(=O)(=O)N2CCC(C)CC2)c(C)s1 [TDI-013669, COc1ccccc1CNC(=O)c1cc(S(=O)(=O)N2CCC(C)CC2)c(C)s1] |  |  |  | 0.575 µM |  |  |  |  |
| Cc1ccc2c(C(=O)NCC3CC(CNC(=O)c4ccn5cncc5c4)CO3)n[nH]c2c1 (centres unmarked) [RU-0834110] |  |  |  |  | 24.8 µM | 67.1% | 2.31 |  |
| Cc1ccc(-c2noc(C(=O)N3CCCCC3)n2)cc1S(=O)(=O)Nc1ccc(F)cc1Cl [RU-0833886] |  |  |  |  | > 125 µM | 14% | 105 |  |
| COc1cccnc1C(=O)NC[C@H]1C[C@H](NC(=O)c2cccn3nccc23)C1(C)C [RU-0833663] | 11 | 4.81% | > 62.5 µM |  |  |  |  |  |
| O=C(NCc1ccc(CNC(=O)c2n[nH]c3cccnc23)cc1)c1c(F)cc(O)cc1F [RU-0834171] |  |  |  |  | > 125 µM | 34.8% | 0.62 |  |
| Cc1cccc(F)c1CC(=O)NCC1CC(CNC(=O)c2ccc3c(c2)COC3)CO1 (centres unmarked) [RU-0834125] |  |  |  |  | > 125 µM | 14.7% | 14.5 |  |
| Cc1cc(O)cc(C)c1C(=O)NCc1ccc(CNC(=O)c2ccc3cncn3c2)cc1 [RU-0834186] |  |  |  |  | 25.5 µM | 39.3% | 0.999 |  |
| O=C(NCc1ccc(C(=O)NCCc2ccccc2O)nc1)c1ccc2[nH]ncc2c1 [RU-0834136] |  |  |  |  | 15.4 µM | 57.7% | 1.01 |  |
| O=C(Cc1ccc(O)cc1Cl)N[C@]12C[C@H]1CN(C(=O)c1cc3ccccc3[nH]1)C2 [RU-0833681] | 0.739 | 1.03% | > 62.5 µM |  |  |  |  |  |
| CC(=O)N1CCN(S(=O)(=O)c2cccc(C(=O)NC3CCCc4ccccc43)c2)CC1 (centres unmarked) [RU-0833929] |  |  |  |  |  | 13.9% | 1.54 | > 125 µM |
| Cc1cc(CC(=O)N2CCn3ncc(CNC(=O)C4CCc5ccccc54)c3C2)ccc1O (centres unmarked) [RU-0834193] |  |  |  |  | > 125 µM | 12.2% | 117 |  |
| O=C(NCc1cccnc1N1CCCC1)c1cccc(S(=O)(=O)N2CCn3cccc3C2)c1 [TDI-014245, O=C(NCc1cccnc1N1CCCC1)c1cccc(S(=O)(=O)N2CCn3cccc3C2)c1] |  |  |  | 0.393 µM |  |  |  |  |
| Cc1cccc(C(CCO)NC(=O)NC(C)Cn2ncc3ccccc3c2=O)c1 (centres unmarked) [RU-0833921] |  |  |  |  | > 125 µM | 11.6% | 0.162 |  |
| CC[C@@H](Cn1ncc2ccccc2c1=O)NC(=O)CCn1ncc2ccccc21 [RU-0833889] |  |  |  |  | > 125 µM | 7.45% | 180 |  |
| COc1ccc(S(=O)(=O)CCc2noc(C(=O)NCc3cccc(OC)c3)n2)cc1 [RU-0833880] |  |  |  |  | > 125 µM | 16% | 33.7 |  |
| Cc1nc2ncnn2c(C)c1CC(=O)NCc1ccc(N2CCCC2=O)cc1 [RU-0833627] | 196 | -0.927% | > 62.5 µM |  |  |  |  |  |
| Cc1cc(C(=O)N[C@@H]2CC[C@H](CNC(=O)c3cnn4ccn(C)c34)C2)ccc1O [RU-0834160] |  |  |  |  | > 125 µM | 17% | 1.6 |  |
| Cc1cc(C(=O)NC2CC(O)(CNC(=O)Cc3c(C)cccc3F)C2)cc(C)c1O (centres unmarked) [RU-0834139] |  |  |  |  | > 125 µM | 20.6% | 1.17 |  |
| Cc1ccc(S(=O)(=O)Nc2ccccc2F)cc1C(=O)NCC(=O)Nc1cccc(C)c1C [RU-0833650] | 0.751 | 2.65% | > 62.5 µM |  |  |  |  |  |
| CNC(=O)c1cccc(NC(=O)CCCn2c(=O)oc3ccccc32)c1 [RU-0833645] | 0.635 | 5.94% | > 62.5 µM |  |  |  |  |  |
